Data published in PubChem BioAssay (NCI).
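A five-concentration, 48-hour dose response in 96-well plates underlies each endpoint, interpolated linearly between surrounding concentrations. GI50 = concentration required for 50% inhibition of growth.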 A number of entries come with more than one value. This list holds those alone. The source may hold further records. For part of these data: A record mostly stands for its own series of concentrations, not given here; a value can be the end of its range. Brackets tell where a record comes from. A, B and so on number the origins entry by entry. For part of these data: Results that share an entry are repeats (runs, samples, wells, individuals or studies).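 Definition used: TGI = concentration required for complete inhibition of growth.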

Assays:
Assay in all cases: inhibition of tumour cell growth, NCI panel, 48 h
786-0 renal = system: 786-0 renal
BT-549 breast = system: BT-549 breast
HCT-15 colon = system: HCT-15 colon
SK-MEL-28 melanoma = system: SK-MEL-28 melanoma
TK-10 renal = system: TK-10 renal
CAKI-1 renal = system: CAKI-1 renal
MALME-3M melanoma = system: MALME-3M melanoma
SK-MEL-5 melanoma = system: SK-MEL-5 melanoma
U251 CNS = system: U251 CNS
SF-295 CNS = system: SF-295 CNS
M14 melanoma = system: M14 melanoma
RPMI-8226 leukemia = system: RPMI-8226 leukemia
MDA-N = system: MDA-N
IGROV1 ovarian = system: IGROV1 ovarian
COLO 205 colon = system: COLO 205 colon
OVCAR-5 ovarian = system: OVCAR-5 ovarian
HT29 colon = system: HT29 colon
SW-620 colon = system: SW-620 colon
K-562 leukemia = system: K-562 leukemia
MOLT-4 leukemia = system: MOLT-4 leukemia
NCI-H23 lung = system: NCI-H23 lung
HCT-116 colon = system: HCT-116 colon
SF-539 CNS = system: SF-539 CNS
SR leukemia = system: SR leukemia
UO-31 renal = system: UO-31 renal
OVCAR-4 ovarian = system: OVCAR-4 ovarian

CCC1(O)CC(OC2CC(N(C)C)C(OC3CC4OC5CC(=O)C(C)OC5OC4C(C)O3)C(C)O2)c2c(cc3c(c2O)C(=O)c2c(O)ccc(O)c2C3=O)C1C(=O)OC (stereo not given)
GI50 (786-0 renal): < 0.1 nM, 3.6 nM [sample A, 1 test] and 0.861 nM [sample B, mean of 2 tests] | TGI (786-0 renal): 1.63 nM, 317 nM [sample A, 1 test] and 508 nM, 425 nM [sample B, mean of 2 tests] | GI50 (BT-549 breast): < 0.1 nM [sample A, 1 test] and 1.61 nM [sample B, mean of 2 tests] | TGI (BT-549 breast): 1.25 nM [sample A, 1 test] and 34.2 nM [sample B, 1 test] and 10.8 nM [sample B, mean of 2 tests] | GI50 (HCT-15 colon): < 0.1 nM, 21.3 nM [sample A, 1 test] and 10.2 nM [sample B, mean of 4 tests] and 8.55 nM [sample B, mean of 7 tests] | TGI (HCT-15 colon): 1.29 nM [sample A, 1 test] and 189 nM [sample B, 1 test] and 216 nM [sample B, mean of 4 tests] and 153 nM [sample B, mean of 7 tests] | GI50 (SK-MEL-28 melanoma): < 0.1 nM [sample A, 1 test] and 10 nM [sample B, mean of 2 tests] and 29.1 nM [sample B, mean of 5 tests] and 12.4 nM [sample B, mean of 8 tests] | TGI (SK-MEL-28 melanoma): 138 nM, 16.1 nM [sample A, 1 test] and 76.7 nM [sample B, mean of 2 tests] and 76.1 nM [sample B, mean of 5 tests] and 45.8 nM [sample B, mean of 8 tests] | TGI (TK-10 renal): 27 nM [1 test] and 723 nM [mean of 2 tests] | TGI (CAKI-1 renal): 12.7 µM [mean of 2 tests] and 26.7 nM, 145 nM [mean of 5 tests] | GI50 (MALME-3M melanoma): < 0.1 nM, 40.2 nM [sample A, 1 test] and < 11.2 nM [sample B, mean of 2 tests] and 9.56 nM [sample B, mean of 3 tests] and 8.29 nM [sample B, mean of 5 tests] | TGI (MALME-3M melanoma): 0.123 nM, 251 nM [sample A, 1 test] and < 25.6 nM [sample B, mean of 2 tests] and 19 nM [sample B, mean of 3 tests] and 29.2 nM [sample B, mean of 5 tests] | GI50 (SK-MEL-5 melanoma): < 0.1 nM, 12.1 nM [sample A, 1 test] and 8.16 nM [sample B, mean of 5 tests] and 5.07 nM [sample B, mean of 8 tests] | TGI (SK-MEL-5 melanoma): 0.274 nM, 49.9 nM [sample A, 1 test] and 13.9 nM [sample B, mean of 5 tests] and 23.2 nM [sample B, mean of 8 tests] | TGI (U251 CNS): 259 nM, 239 nM [sample A, 1 test] and 1.07 µM [sample B, mean of 2 tests] and 362 nM [sample B, mean of 5 tests] and 330 nM [sample B, mean of 7 tests] | GI50 (SF-295 CNS): < 0.1 nM [sample A, 1 test] and 8.56 nM [sample B, mean of 4 tests] and 2.81 nM [sample B, mean of 7 tests] | TGI (SF-295 CNS): 1.35 nM [sample A, 1 test] and 451 nM [sample B, mean of 2 tests] and 28.3 nM [sample B, mean of 4 tests] and 35.8 nM [sample B, mean of 7 tests] | TGI (M14 melanoma): 278 nM, 110 nM [sample A] and 93 nM, < 18.8 nM [sample B] | GI50 (RPMI-8226 leukemia): < 0.1 nM, 1.02 nM [sample A, 1 test] and 8.42 nM [sample B, mean of 4 tests] and 3.36 nM [sample B, mean of 6 tests] | TGI (RPMI-8226 leukemia): < 0.1 nM, 25.1 nM [sample A, 1 test] and 19.3 nM [sample B, 1 test] and 23.5 nM [sample B, mean of 4 tests] and 26.6 nM [sample B, mean of 6 tests] | GI50 (MDA-N): < 0.1 nM [sample A, 1 test] and 2.97 nM [sample B, mean of 3 tests] | TGI (MDA-N): 0.15 nM [sample A, 1 test] and 15.8 nM [sample B, mean of 3 tests] | GI50 (IGROV1 ovarian): < 0.1 nM, 4.66 nM [sample A, 1 test] and 9.41 nM [sample B, mean of 5 tests] and 1.43 nM [sample B, mean of 6 tests] | TGI (IGROV1 ovarian): 23 nM [sample A, 1 test] and 1.44 µM [sample B, 1 test] and 716 nM [sample B, mean of 5 tests] and 610 nM [sample B, mean of 6 tests] | GI50 (COLO 205 colon): < 0.1 nM, 1.14 nM [sample A, 1 test] and 0.968 nM [sample B, mean of 6 tests] | TGI (COLO 205 colon): 0.113 nM, 121 nM [sample A, 1 test] and 9.37 nM [sample B, mean of 6 tests] | TGI (OVCAR-5 ovarian): 1.32 µM [mean of 2 tests] and 188 nM [mean of 6 tests] and 10.6 nM [mean of 8 tests] | GI50 (HT29 colon): < 0.1 nM, 3.31 nM [sample A, 1 test] and 8.48 nM [sample B, mean of 6 tests] and 1.57 nM [sample B, mean of 7 tests] | TGI (HT29 colon): 17.5 nM, 263 nM [sample A, 1 test] and 1.28 µM [sample B, mean of 2 tests] and 30.1 nM [sample B, mean of 6 tests] and 79.8 nM [sample B, mean of 7 tests] | GI50 (SW-620 colon): < 0.1 nM, 3.32 nM [sample A, 1 test] and 7.5 nM [sample B, mean of 4 tests] and 2 nM [sample B, mean of 8 tests] | TGI (SW-620 colon): 11.5 nM [sample A, 1 test] and 335 nM [sample B, mean of 4 tests] and 381 nM [sample B, mean of 8 tests] | TGI (K-562 leukemia): 2.44 nM, 104 nM [sample A, 1 test] and 214 nM [sample B, mean of 5 tests] and 83.7 nM [sample B, mean of 7 tests] | GI50 (MOLT-4 leukemia): < 0.1 nM, 1.76 nM [sample A, 1 test] and 9.99 nM [sample B, mean of 4 tests] and 1.1 nM [sample B, mean of 7 tests] | TGI (MOLT-4 leukemia): < 0.1 nM, 7.32 nM [sample A, 1 test] and < 32.9 nM [sample B, mean of 2 tests] and 17.8 nM [sample B, mean of 4 tests] and 23.3 nM [sample B, mean of 7 tests] | GI50 (NCI-H23 lung): < 0.1 nM, 13.5 nM [sample A, 1 test] and 8.7 nM [sample B, mean of 4 tests] and 6.29 nM [sample B, mean of 7 tests] | TGI (NCI-H23 lung): 0.11 nM, 162 nM [sample A, 1 test] and 22.1 nM [sample B, mean of 2 tests] and 27 nM [sample B, mean of 4 tests] and 25.4 nM [sample B, mean of 7 tests] | GI50 (HCT-116 colon): < 0.1 nM, 1.42 nM [sample A, 1 test] and 3.4 nM, 7.5 nM [sample B, mean of 4 tests] | GI50 (SF-539 CNS): < 0.1 nM, 18.8 nM [sample A, 1 test] and 16.6 nM, 9.84 nM [sample B, mean of 6 tests] | TGI (SF-539 CNS): 0.911 nM, 160 nM [sample A, 1 test] and 51.7 nM [sample B, mean of 2 tests] and 80 nM, 22.6 nM [sample B, mean of 6 tests] | GI50 (SR leukemia): 4.04 nM [sample A, 1 test] and 0.233 nM [sample B, mean of 3 tests] | TGI (SR leukemia): 131 nM, 10.4 nM [sample A, 1 test] and 1.7 nM [sample B, mean of 3 tests] | GI50 (UO-31 renal): < 0.1 nM [sample A, 1 test] and 2.69 nM, 7.5 nM [sample B, mean of 4 tests] | TGI (UO-31 renal): < 0.1 nM [sample A, 1 test] and 9.17 nM, 382 nM [sample B, mean of 4 tests] | GI50 (OVCAR-4 ovarian): < 0.1 nM, 4.6 nM [sample A, 1 test] and 7.56 nM [sample B, mean of 2 tests] and 4.34 nM [sample B, mean of 7 tests] | TGI (OVCAR-4 ovarian): 1.99 nM, 37.5 nM [sample A, 1 test] and 78.8 nM [sample B, mean of 2 tests] and 107 nM [sample B, mean of 7 tests]
